PubChem BioAssay AID743255 (National Center for Advancing Translational Sciences (NCATS), 2014)
About 910 (0.23%) of roughly 390,000 compounds were called active. Not shown: some 5% with an inconclusive outcome. Calls follow the shape of the dose curve; as a rule, active = well fitted inhibition curve with a large enough effect; inconclusive = small, poorly fitted or top-dose-only effect; inactive = no such curve, though single readings can be large or run the other way. The list shows a part of the results, in another mix than the full data.

The compounds below were run against Ubiquitin carboxyl-terminal hydrolase 1 (Homo sapiens) (UniProt O94782) (assay: Inhibitors of USP1/UAF1: Primary Screen). Settings: recombinant USP1/UAF1, Ub-Rhodamine cleavage fluorescence; activity change, negative = inhibition: at 57.1 µM (top of the series).
UniProt O94782, sequence (O94782 whole entry, looked up): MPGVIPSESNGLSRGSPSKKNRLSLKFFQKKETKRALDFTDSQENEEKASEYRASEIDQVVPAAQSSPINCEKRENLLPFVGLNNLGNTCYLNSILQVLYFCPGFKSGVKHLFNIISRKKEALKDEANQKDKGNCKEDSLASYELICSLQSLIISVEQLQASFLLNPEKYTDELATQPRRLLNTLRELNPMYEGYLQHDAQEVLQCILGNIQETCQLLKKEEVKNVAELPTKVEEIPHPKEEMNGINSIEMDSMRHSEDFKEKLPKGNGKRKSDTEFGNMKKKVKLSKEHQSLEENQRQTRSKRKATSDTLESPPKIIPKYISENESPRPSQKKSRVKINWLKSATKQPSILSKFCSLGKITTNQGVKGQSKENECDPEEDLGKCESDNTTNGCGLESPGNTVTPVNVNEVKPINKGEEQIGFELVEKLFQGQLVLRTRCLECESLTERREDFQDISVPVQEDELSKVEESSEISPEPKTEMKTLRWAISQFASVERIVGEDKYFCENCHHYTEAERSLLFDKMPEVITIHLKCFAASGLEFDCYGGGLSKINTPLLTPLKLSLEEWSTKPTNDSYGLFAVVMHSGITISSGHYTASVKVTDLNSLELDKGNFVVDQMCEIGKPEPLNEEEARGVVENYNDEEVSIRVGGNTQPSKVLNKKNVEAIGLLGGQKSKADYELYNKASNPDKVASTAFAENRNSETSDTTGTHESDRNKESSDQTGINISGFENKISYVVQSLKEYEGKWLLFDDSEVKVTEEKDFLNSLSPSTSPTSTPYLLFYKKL
In short: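 In this screen, compounds sit with the deubiquitinase complex (1nM) for 15 min at room temperature before Ub-Rho is added at 150nM final. Fluorescence rise is then followed for 6 reads every 60 seconds.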
% is scaled to controls: 0 for no effect and ±100 for the full control effect; potency is read from the fitted curve at half-maximal effect.
Also: nearly all actives have a fitted effect of over 60% in size.

| SMILES | activity change, negative = inhibition | Potency |
| --- | --- | --- |
| CCOc1ccc(-c2nc(CSCC(=O)NCc3ccc(C)cc3)c(C)o2)cc1 | inactive: 33.5% |  |
| OCC[C@@H]1C[C@H](O)[C@@H](O)[C@]2(CCCO2)O1 | inactive: 12.5% |  |
| O=C(O)c1ccc(-c2ccc(/C=c3/sc4nc5ccccc5n4c3=O)o2)cc1Cl |  | active: 28.2 µM |
| CCOC(=O)[C@@H]1[C@H]2COc3ccc(Br)cc3[C@H]2N2C(=O)N(c3ccc(C(F)(F)F)cc3)C(=O)[C@]12C | inactive: -21.3% |  |
| COC(C/C=C/[C@H](O)COCc1ccccc1)OC | inactive: -21.4% |  |
| COc1ccc([C@H]2C[C@H](n3cc(-c4ccc(F)cc4)nn3)[C@@H](O)CN2CC2CCCCC2)cc1 | inactive: -11.9% |  |
| COc1ccc(S(=O)(=O)/N=C2\C=C(Nc3ccc(O)cc3)C(=O)c3ccccc32)cc1 |  | active: 7.08 µM |
| Cc1ccc(NC(=O)Nc2nnc(SCC(=O)N3CCC(C)CC3)s2)cc1 | inactive: 16.7% |  |
| Cc1[nH]c2ccccc2c1/C=C/c1nc2ccccc2c(=O)n1CCO | inactive: 75.2% |  |
| COc1ccc(NC(=O)CN2C(=O)COc3ccc(S(=O)(=O)N4CCOCC4)cc32)cc1Cl | inactive: -28.9% |  |
| COc1ccccc1C(=O)NC(=O)Nc1ccc(-n2nc(C(F)(F)F)cc2C(F)(F)F)cc1 | inactive: 59.3% |  |
| O=[N+]([O-])c1ccc(C=Nc2cccc3ccccc23)s1 |  | active: 14.1 µM |
| Nc1ccc(N2CCOCC2)c2nonc12 |  | active: 17.8 µM |
| COc1ccc(OC)c(C2=NS(=O)(=O)N(C)C(C(=O)Nc3ccc(C(C)=O)cc3)=C2)c1 | inactive: -22.7% |  |
| COCCN(C(=O)COC(=O)/C=C/c1ccc2c(c1)OCO2)c1c(N)n(Cc2ccccc2)c(=O)[nH]c1=O | inactive: -13.1% |  |
| CCn1c(=O)c(C(=O)Nc2cccnc2)c(O)c2ccccc21 | inactive: -3.41% |  |
| CCC1CCCCN1CCCNC(=O)c1cn(CC)c2ccc(S(=O)(=O)N(C)C3CCCCC3)cc2c1=O (centres undefined) | inactive: -11.1% |  |
| O=C1C=C(Nc2ccccc2C(=O)O)c2ccccc2C1=O |  | active: 7.94 µM |
| O=C(N/N=C/C(Br)=C\c1ccccc1)c1cccs1 | inactive: -2.91% |  |
| CC(=O)Nc1ccc(NC(=O)c2cc(=O)c3ccccc3o2)cc1 | inactive: -2.12% |  |
| CCc1ccc(S(=O)(=O)/N=C2\C=C(NS(=O)(=O)c3ccccc3)C(=O)c3ccccc32)cc1 |  | active: 25.1 µM |

| SMILES | activity change, negative = inhibition | Potency |
| --- | --- | --- |
| Cc1cccc(C)c1Nc1c(-c2ccc(N3CCOCC3)cc2)nc2ncccn12 | inactive: -35% |  |
| CC(=O)O[C@]1(C(C)=O)CC[C@H]2[C@@H]3C=C(Cl)C4=CC(=O)[C@@H]5C[C@@H]5[C@]4(C)[C@H]3CC[C@@]21C | inactive: -12.9% |  |
| CC(=O)C[C@H](O)CC(=O)[C@H]1OC(=O)CCCCC/C=C/Cc2ccccc21 | inactive: 19.2% |  |
| CC(C)NC(=O)N(C)C[C@@H]1Oc2c(NS(=O)(=O)c3ccccc3)cccc2C(=O)N([C@@H](C)CO)C[C@@H]1C | inactive: -29.3% |  |
| O=C(O)COCCN1CCN(C(c2ccccc2)c2ccc(Cl)cc2)CC1 (centres undefined) | inactive: -10.2% |  |
| CC(=O)OCC(=O)C1(O)CCC2C3CCC4=CC(=O)C=CC4(C)C3C(O)CC21C (centres undefined) | inactive: 10.9% |  |
| C[C@@H]1CN([C@@H](C)CO)C(=O)CCCn2nncc2CO[C@@H]1CN(C)C(=O)CCC(F)(F)F | inactive: -15.1% |  |
| CCOC(=O)C1=C(CC)OC(N)=C(C#N)C1c1ccc(OC)c(C)c1OC (centres undefined) | inactive: -8.88% |  |
| C=CC[C@H](CC(=O)OC(C)(C)C)C(=O)OC[C@H]1CCCN1C(=O)[C@H](CC=C)CC(=O)NCCO | inactive: -17.3% |  |
| COc1cc(NC(=O)CSc2ccc(-c3ccccn3)nn2)cc(OC)c1 | inactive: -22.6% |  |
| O=C1OC[C@@H]2CCCN2C(=O)[C@H](CC(=O)N(CCO)Cc2ccccc2)C/C=C\CC[C@@H]1Cc1ccc(F)cc1 | inactive: -4.81% |  |
| CC1CCCN(c2nc3ccccc3nc2C(C#N)S(=O)(=O)c2cccs2)C1 (centres undefined) | inactive: 143% |  |
| C[C@H]1CN([C@@H](C)CO)C(=O)CCCn2nncc2CO[C@H]1CN(C)C(=O)CCC(F)(F)F | inactive: -1.84% |  |
| O=C(O)c1[nH]c2ccccc2c1C(c1cc(Cl)cc([N+](=O)[O-])c1O)c1c(C(=O)O)[nH]c2ccccc12 |  | active: 31.6 µM |
| C[C@@H]1CN([C@H](C)CO)C(=O)CCCn2nncc2CO[C@@H]1CN(C)C(=O)c1ccccc1 | inactive: -13% |  |
| O=C(C1=C[C@H](c2csc3ccccc23)C[C@H](OCc2ccc(CO)cc2)O1)N1CCN(Cc2ccc3c(c2)OCO3)CC1 | inactive: -30% |  |
| O=C(Nc1ccccc1)c1nc[nH]c1C(=O)O | inactive: 24.9% |  |
| CN(C)CCNC(=O)c1ccc(-c2nn(C)c(=O)c3ccccc23)cc1 | inactive: -1.94% |  |
| CCOC(=O)CCCCCC(=O)Nc1ccc2c(c1)C(=O)N([C@H](C)CO)C[C@H](C)[C@@H](CN(C)C(=O)Nc1ccccc1)OCCCC[C@@H](C)O2 | inactive: 7.44% |  |
| COC(=O)c1ccc2c(=O)n(CCCCCC(=O)NC(C)C)c(=O)[nH]c2c1 | inactive: -14% |  |
| COc1ccc([C@H]2C[C@H](n3cc(COC(=O)c4ccccc4)nn3)[C@@H](O)CN2C(=O)C2CCCCC2)cc1 | inactive: 0.197% |  |

| SMILES | activity change, negative = inhibition | Potency |
| --- | --- | --- |
| C=CC[C@@H](Cc1ccc(F)cc1)C(=O)OC[C@@H]1CCCN1C(=O)[C@@H](CC=C)CC(=O)N(CCO)Cc1ccccc1 | inactive: -16.5% |  |
| CCN(c1cc(C)cc(C)c1)S(=O)(=O)c1nnc(NC(=O)c2ccco2)s1 | inactive: -12.8% |  |
| CC(=C/c1ccccc1)/C=N/NC(=O)c1cccs1 | inactive: -3.99% |  |
| Cc1cc(NC2=CC(=O)C(=O)c3ccccc32)no1 |  | active: 2.51 µM |
| COc1cc(OC)c(NC(=O)CCNS(=O)(=O)c2ccc3c(c2)oc(=O)n3C)cc1Cl | inactive: -2.3% |  |
| Nc1ccc(-c2c3ccc(=O)cc-3oc3cc(O)ccc23)c(C(=O)O)c1 |  | active: 28.2 µM |
| O=C(O)C1CC(c2cccc(Br)c2)=NO1 (centres undefined) | inactive: 30.1% |  |
| O=C(NC1CC1)C1=C[C@@H](c2ccc(C(F)(F)F)cc2)C[C@@H](OCc2ccc(CO)cc2)O1 | inactive: -28.6% |  |
| COc1ccc(CC(=O)Nc2ccccc2C(=O)N2CCOCC2)cc1OC | inactive: 86.1% |  |
| CCC(CN(C)C)Oc1cc(NCc2ccccc2)c2ncn(C(C)C)c2c1 (centres undefined) |  | active: 28.2 µM |
| C[C@H](CO)N1C[C@H](C)[C@H](CN(C)C(=O)c2ccc(N3CCN(C)CC3)cc2)OCc2cnnn2CCCC1=O | inactive: -31.3% |  |
| N#Cc1c(NC(=O)c2ccccc2Cl)n(Cc2ccccc2)c2nc3ccccc3nc12 |  | active: 25.1 µM |
| Cc1ccccc1N(C)S(=O)(=O)c1nnc(NC(=O)c2ccccc2F)s1 | inactive: -26.1% |  |
| N#CC(C(=O)OCc1ccccc1)c1nc2ccccc2nc1N1CCOCC1 (centres undefined) | inactive: 30.6% |  |
| O=C(C[C@H]1C/C=C\C[C@H](NC(=O)OCC2c3ccccc3-c3ccccc32)C(=O)OC[C@@H]2CCCN2C1=O)N[C@H](CO)Cc1ccccc1 | inactive: -18.4% |  |
| C=CC[C@@H](Cc1ccc(F)cc1)C(=O)OC[C@@H]1CCCN1C(=O)[C@@H](CC=C)CC(=O)N[C@@H](CO)Cc1ccccc1 | inactive: -8.29% |  |
| O=C(C[C@@H]1C/C=C\C[C@@H](Cc2ccc(F)cc2)C(=O)OC[C@@H](Cc2c[nH]c3ccccc23)NC1=O)NCCO | inactive: 17.4% |  |
| O=C(O)C1=CCC=CC1C(=O)O (centres undefined) | inactive: 35.2% |  |
| COC(C[C@@H]1O[C@@H]1[C@H](O)[C@@H](C)OCc1ccccc1)OC | inactive: -21.1% |  |
| CCOc1ccc(OCC)c(NS(=O)(=O)c2ccc3c(c2)CCN3C(=O)C2CCC2)c1 | inactive: -12.2% |  |
| COC(=O)C1=C(C(=O)OC)[C@]2([C@H]3CC=CCN[C@@H](Cc4ccccc4)C(=O)N3Cc3ccccc3)C=C[C@H]1O2 | inactive: -25.7% |  |

| SMILES | activity change, negative = inhibition | Potency |
| --- | --- | --- |
| C[C@@H]1CN([C@H](C)CO)C(=O)CCCn2nncc2CO[C@H]1CN(C)Cc1ccc(Oc2ccccc2)cc1 | inactive: -22.1% |  |
| Cc1cccc(S(=O)(=O)N(C)C[C@@H]2OCc3cnnn3CCCC(=O)N([C@H](C)CO)C[C@@H]2C)c1 | inactive: 8.06% |  |
| CC(NC1=CC(=O)c2cccnc2C1=O)C(O)c1ccccc1 (centres undefined) |  | active: 5.62 µM |
| COCCN1C(=O)/C(=C/c2ccc(N3CCCC3)cc2)SC1=S |  | active: 5.01 µM |
| Cc1nn(C)c(C)c1N1C(=O)c2cccc3c(N)ccc(c23)C1=O |  | active: 25.1 µM |
| Cn1cccc1/C=C1\SC(=S)N(CC(=O)O)C1=O | inactive: -18.6% |  |
| Cc1ccc(S(=O)(=O)c2nc(-c3ccco3)oc2SC(C)C)cc1 | inactive: -4.16% |  |
| N#Cc1c(NC(=O)c2ccc(Br)o2)n(-c2ccccc2)c2nc3ccccc3nc12 |  | active: 6.31 µM |
| COC(=O)C1C(O)CCC2CN3CCc4c([nH]c5ccccc45)C3CC21 (centres undefined) | inactive: -11.1% |  |
| Cc1ccc(Nc2nc(Nc3ccc(C)c(C)c3)nc(N3CCOCC3)n2)cc1C | inactive: 25.5% |  |
| C=CCC[C@H](Cc1ccc(F)cc1)C(=O)OC[C@H](Cc1c[nH]c2ccccc12)NC(=O)[C@H](CC=C)CC(=O)NCCO | inactive: -19% |  |
| Cc1ccc(S(=O)c2ccc([N+](=O)[O-])c3nonc23)cc1 (centres undefined) |  | active: 15.8 µM |
| C[C@H]1NC(=O)[C@]2(C)[C@@H](c3ccccc3)[C@H]3COc4ccccc4[C@H]3N2C1=O | inactive: -0.914% |  |
| COc1ccc(-n2c(/C=C/c3cc(OC)c(OC)cc3OC)nc3cc4ccccc4cc3c2=O)cc1Cl | inactive: 77.7% |  |
| COc1ccc(/C=C/c2nc(C#N)c(NC3CCCCC3)o2)cc1OC | inactive: -5.61% |  |
| CCOC(=O)[C@H]1[C@H]2COc3cc(OC)ccc3[C@@H]2N2C(=O)N(c3ccc(Br)cc3)C(=O)[C@@]12C | inactive: -9.27% |  |
| O=C1OC[C@@H]2CCCN2C(=O)[C@H](CC(=O)N(CCO)Cc2ccccc2)C/C=C\CC[C@H]1Cc1ccc(F)cc1 | inactive: -15.5% |  |
| C=CC[C@@H](CC(=O)N[C@@H](CO)Cc1ccccc1)C(=O)N[C@@H](COC(=O)[C@H](CC=C)CC(=O)OC(C)(C)C)Cc1c[nH]c2ccccc12 | inactive: -25.3% |  |
| O=C(CSc1nccn1Cc1ccc(F)cc1)NC1CCCC1 | inactive: -20.8% |  |
| CCN1C(=O)[C@@H]2[C@@H](c3ccc(-c4ccc(C(C)=O)cc4)cc3)N3CCC[C@@]3(C(=O)OC)[C@@H]2C1=O | inactive: -16.4% |  |
| CCN1C(=O)/C(=C\c2cn(-c3ccccc3)nc2-c2cccnc2)SC1=S | inactive: -15.7% |  |
